Source: PubChem BioAssay (NCATS)
Where “and” joins values, the source holds several entries; their conditions need not be identical. Equal entries are not always repeated. This list was built around the results that the source calls inconclusive (neither active nor inactive); the mix of calls is not that of the screen. For part of these data: Potencies beside an inconclusive call are fits to weak or partial responses and may not hold up. Calls of active or inactive are those of the source. Calls come from the whole dose curve; as a rule, active = well fitted curve in the direction sought with a large enough effect; inconclusive = small, poorly fitted or top-dose-only effect, or another doubt; inactive = no such curve, though single readings can be large; an effect the other way counts as inactive or inconclusive.

Key:
CRL-7250 = normal cell line; assay: Cytotoxic Profiling of Annotated Libraries Using Quantitative High-Throughput Screening (AID 1296008); conditions: Five cell lines viability, CellTiter-Glo ATP luminescence, 48-72 h; max response: stronger effect = lower value; note: nearly all actives have a fitted effect of over 60% in size; for max response: % is set by controls: 0 for no effect and ±100 for the full control effect
Summary of the method: (§1)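 Cytotoxicity was measured as CellTiter-Glo ATP luminescence, read after 10 min at room temperature. Compound treatment of the cells lasted 48 or 72 hr at 37 degrees Celsius in a qHTS format.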

HaCat = assay: as above; conditions: Five cell lines viability, CellTiter-Glo ATP luminescence, 48-72 h; max response: stronger effect = lower value
Summary of the method: as §1

KB-3-1 = assay: as above; conditions: Five cell lines viability, CellTiter-Glo ATP luminescence, 48-72 h; max response: stronger effect = lower value
Summary of the method: as §1

MCC-26 = assay: qHTS assay to identify novel small-molecules to repurpose for Merkel cell carcinoma treatment (AID 1296009); conditions: MCC and control cell lines, CellTiter-Glo viability, 72 h; series mostly up to 46 µM; note: nearly all actives have a fitted effect of over 60% in size; for activity change, negative = cytotoxicity: % is set by controls: 0 for no effect and ±100 for the full control effect
Summary of the method: (§2)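 Cell viability measured by CellTiter-Glo following 72 hr compound treatment at 37 degree celsius, with NPC and MIPE libraries tested in 8- and 11-point concentration series.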

MKL-2 = assay: as above; conditions: MCC and control cell lines, CellTiter-Glo viability, 72 h; series mostly up to 46 µM
Summary of the method: as §2

[1] = qHTS assay to identify inhibitors of the type 1 interferon - major histocompatibility complex class I in skeletal muscle: Counter screen cell viability and HiBit confirmation (AID 1347412); conditions: iHSKM muscle cells + IFN-b, HiBiT or CellTiter-Glo, 24 h; Viability; note: nearly all actives have a fitted effect of over 60% in size
Summary of the method: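 Myoblasts (C25cl48, HLA-B HiBiT) seeded in medium without dexamethasone, IFN-b 4 ng/ml added except unstimulated columns; 1 hr later compounds pinned (12-pt 1:3, top 46 uM final). Incubated 24 hrs, lysed 10 min, luminescence measured.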

C33A = assay: Primary qHTS to identify gynecologic anti-cancer compounds using libraries of approved drugs and bioactive compounds (AID 1345084); conditions: Gynecologic cancer cell panel viability, ATPlite luminescence, 48 h; series mostly up to 57.5 µM; note: nearly all actives have a fitted effect of over 55% in size
Summary of the method: (§3)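 48 h compound exposure at 37 C, 5% CO2; five-point qHTS. ATPlite luminescence readout of cell ATP.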

CAOV3 = assay: as above; conditions: Gynecologic cancer cell panel viability, ATPlite luminescence, 48 h; series mostly up to 57.5 µM
Summary of the method: as §3

CASKI = assay: as above; conditions: Gynecologic cancer cell panel viability, ATPlite luminescence, 48 h; activity change, negative = cytotoxicity: at 57.5 µM (top of the series)
Summary of the method: as §3

Es-2 = assay: as above; conditions: Gynecologic cancer cell panel viability, ATPlite luminescence, 48 h; series mostly up to 57.5 µM
Summary of the method: as §3

HeLa = assay: as above; conditions: Gynecologic cancer cell panel viability, ATPlite luminescence, 48 h; series mostly up to 57.5 µM
Summary of the method: as §3

W2 = assay: qHTS profiling for inhibitors of Plasmodium falciparum proliferation (AID 504749); note: nearly all actives have a fitted effect of over 60% in size; conditions: P. falciparum in erythrocytes, SYBR Green DNA, 72 h; series mostly up to 28.7 µM
Summary of the method: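 In a 72 h erythrocytic culture (37 C, humidified, 5% CO2) at 2.5% hematocrit and 0.3% starting parasitemia, compounds were tested; SYBR Green I in detergent lysis buffer stained parasite DNA overnight.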

NIH3T3 = assay: Cytotoxic Profiling of Annotated Libraries Using Quantitative High-Throughput Screening (AID 1296008); conditions: Five cell lines viability, CellTiter-Glo ATP luminescence, 48-72 h; max response: stronger effect = lower value; note: nearly all actives have a fitted effect of over 60% in size; for max response: % is set by controls: 0 for no effect and ±100 for the full control effect
Summary of the method: as §1

MCC-13 = assay: qHTS assay to identify novel small-molecules to repurpose for Merkel cell carcinoma treatment (AID 1296009); conditions: MCC and control cell lines, CellTiter-Glo viability, 72 h; series mostly up to 46 µM; note: nearly all actives have a fitted effect of over 60% in size
Summary of the method: as §2

MKL-1 = assay: as above; conditions: MCC and control cell lines, CellTiter-Glo viability, 72 h; series mostly up to 46 µM
Summary of the method: as §2

UISO = assay: as above; conditions: MCC and control cell lines, CellTiter-Glo viability, 72 h; series mostly up to 46 µM
Summary of the method: as §2

HEK293 = assay: Cytotoxic Profiling of Annotated Libraries Using Quantitative High-Throughput Screening (AID 1296008); conditions: Five cell lines viability, CellTiter-Glo ATP luminescence, 48-72 h; max response: stronger effect = lower value; note: nearly all actives have a fitted effect of over 60% in size; for max response: % is set by controls: 0 for no effect and ±100 for the full control effect
Summary of the method: as §1

WaGa = assay: qHTS assay to identify novel small-molecules to repurpose for Merkel cell carcinoma treatment (AID 1296009); conditions: MCC and control cell lines, CellTiter-Glo viability, 72 h; series mostly up to 46 µM; note: nearly all actives have a fitted effect of over 60% in size
Summary of the method: as §2

[2] = Drug repurposing screens with cells derived from glioblastoma tumor samples (AID 1345199); conditions: GBM patient neurospheres viability, ATP luminescence, 48 h; Potency: tumour line A unless noted; activity, negative = cell killing: at 46 µM (top of the series), tumour line A unless noted; note: nearly all actives have a fitted effect of over 40% in size
Summary of the method: (§4)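 Primary testing used CD133+ neurospheres from four GBM patients, seven concentrations, 48 h exposure and ATP-based viability; confirmation added three slower-growing patient lines.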

astro = assay: as above; conditions: viability, ATP luminescence, 48 h; activity, negative = cell killing: at 45.9 µM (top of the series)
Summary of the method: as §4
Potency is the fitted concentration of half-maximal effect; tags give direction and shape of the fitted curve.

C[C@@H](Oc1cc(-c2cnn(C3CCNCC3)c2)cnc1N)c1c(Cl)ccc(F)c1Cl
Potency (CRL-7250): active: 11.8 µM and active: 20.6 µM and active: 23.1 µM | Potency (HaCat): inconclusive: 16.6 µM [inhibitor, partial curve] | Potency (KB-3-1): active: 6.51 µM | Potency (MCC-26): inconclusive: 18.7 µM [inhibitor, single point] | Potency (MKL-2): inconclusive: 18.7 µM [inhibitor, partial curve, poor fit] | Potency [1]: active: 27.9 µM | Potency (C33A): active: 20 µM and inconclusive: 39.8 µM [cytotoxic, single point] | Potency (CAOV3): active: 11.2 µM and active: 12.6 µM | Potency (CASKI): active: 14.1 µM and inconclusive: 39.8 µM [cytotoxic, single point] | Potency (Es-2): inconclusive: 25.1 µM [cytotoxic, single point] and inconclusive: 31.6 µM [cytotoxic, single point] | Potency (HeLa): active: 3.55 µM and active: 14.1 µM

Oc1c(Cl)cc(Cl)c(Cl)c1Cc1c(O)c(Cl)cc(Cl)c1Cl
Potency (W2): inconclusive: 12 µM [inhibitor, single point] | Potency (CRL-7250): inconclusive: 21.1 µM [inhibitor, single point] | Potency (HaCat): inconclusive: 33.5 µM [inhibitor, single point] | Potency (KB-3-1): inconclusive: 23.1 µM [inhibitor, partial curve] | Potency (NIH3T3): inconclusive: 23.7 µM [inhibitor, single point] | Potency (MCC-13): inconclusive: 15 µM [inhibitor, partial curve] | Potency (MKL-1): inconclusive: 26.6 µM [inhibitor, single point] | Potency (UISO): active: 11.9 µM | Potency (C33A): inconclusive: 28.2 µM [cytotoxic, partial curve, poor fit] | Potency (Es-2): inconclusive: 22.4 µM [cytotoxic, partial curve] | Potency (HeLa): inconclusive: 17.8 µM [cytotoxic, partial curve, poor fit]

Cc1ccc(C(N)=O)cc1Nc1nccc(-c2cn(C(C)C)c3cnccc23)n1
Potency (CRL-7250): active: 11.6 µM | Potency (HEK293): active: 6.51 µM | Potency (MCC-13): inconclusive: 33.2 µM [inhibitor, single point] | Potency (MCC-26): inconclusive: 20.9 µM [inhibitor, partial curve] | Potency (MKL-1): inconclusive: 8.33 µM [inhibitor, full curve] | Potency (WaGa): inconclusive: 2.09 µM [inhibitor, full curve, poor fit] | Potency (C33A): active: 3.16 µM | Potency (CAOV3): inconclusive: 7.94 µM [cytotoxic, full curve, poor fit] | Potency (CASKI): active: 17.8 µM | Potency (Es-2): inconclusive: 35.5 µM [cytotoxic, partial curve, poor fit] | Potency (HeLa): active: 25.1 µM

Cc1cc(O)c(C(C)C)cc1Cl
Potency (W2): inconclusive: 15.1 µM [inhibitor, single point] | max response (CRL-7250): inactive: -3.05% | outcome (HEK293): inactive | Potency (MKL-1): inactive | Potency (MKL-2): inactive | Potency [2]: inconclusive: 0.112 µM [inhibitor, full curve, poor fit]

CNCCCC1c2ccccc2C=Cc2ccccc21
Potency (W2): active: 0.51 µM | Potency (CRL-7250): inconclusive: 33.5 µM [inhibitor, single point] | Potency (HEK293): inconclusive: 26.6 µM [inhibitor, single point] | Potency (MKL-1): inconclusive: 21.1 µM [inhibitor, single point] | Potency (WaGa): inconclusive: 23.7 µM [inhibitor, single point] | Potency (astro): inconclusive: 14.1 µM [inhibitor, partial curve] | Potency (CAOV3): inconclusive: 39.8 µM [cytotoxic, single point] | Potency (CASKI): inconclusive: 28.2 µM [cytotoxic, single point] | Potency (Es-2): inconclusive: 25.1 µM [cytotoxic, single point]

NS(=O)(=O)OC[C@@H]1C[C@@H](n2ccc3c(N[C@H]4CCc5ccccc54)ncnc32)C[C@H]1O
Potency (CRL-7250): active: 2.64 µM | Potency (HaCat): inconclusive: 0.935 µM [inhibitor, full curve, poor fit] | Potency (KB-3-1): inconclusive: 0.418 µM [inhibitor, full curve] | Potency (MCC-26): active: 2.09 µM | Potency (MKL-1): inconclusive: 2.96 µM [inhibitor, full curve] | Potency (MKL-2): inconclusive: 14.8 µM [inhibitor, partial curve, poor fit] | Potency (UISO): active: 1.18 µM | Potency (WaGa): active: 1.48 µM

CCN(CC)CCCC(C)Nc1ccnc2cc(Cl)ccc12 (stereo not drawn)
Potency (CRL-7250): inconclusive: 13 µM [inhibitor, single point] | Potency (HEK293): inconclusive: 14.6 µM [inhibitor, single point] and inconclusive: 5.31 µM [inhibitor, single point] | Potency (MKL-1): inconclusive: 11.8 µM [inhibitor, single point] | Potency (MKL-2): inconclusive: 8.33 µM [inhibitor, full curve] | Potency [2]: active: 15.8 µM | Potency (CAOV3): inconclusive: 20 µM [cytotoxic, single point] | Potency (CASKI): inconclusive: 7.94 µM [cytotoxic, partial curve]
